According to patent US20150266977A1 (AbbVie / Abbott, published 2015):
Where a chain is given by its changes, count along the chain named.

T1: recombinant human sclerostin (human, UniProt Q9BQB4 24-213)
T1 construct: biotinylated in the ELISAs; also called hu sclerostin; hu scl
T1 sequence: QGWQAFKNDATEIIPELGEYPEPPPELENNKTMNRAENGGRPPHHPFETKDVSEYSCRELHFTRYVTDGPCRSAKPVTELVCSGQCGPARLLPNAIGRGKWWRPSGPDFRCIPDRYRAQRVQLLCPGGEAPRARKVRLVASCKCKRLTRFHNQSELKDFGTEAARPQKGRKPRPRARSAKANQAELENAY

B1: DVD2646 (bispecific antibody, human IgG1, lambda)
heavy: EVQLVESGGGLVQPGGSLRLSCAASGFTFSNYGVEWVRQAPGKGLEWVSGIWADGSTHYADTVKSRFTISRDNSKNTLYLQMNSLRAEDTAVYYCAREWQHGPVAYWGQGTLVTVSSASTKGPSVFPLAPEVQLVESGGGLVQPGRSLRLSCAASGFTFDDYALHWVRQAPGKGLEWVSGIGWEDDMIDYADSVKGRFTISRDNAKNSLYLQMNSLRVEDTALYYCAGNSRGYGGLDVWGQGTTVTVSSASTKGPSVFPLAPSSKSTSGGTAALGCLVKDYFPEPVTVSWNSGALTSGVHTFPAVLQSSGLYSLSSVVTVPSSSLGTQTYICNVNHKPSNTKVDKKV[left out - human IgG1 Fc with changes]
light: DIQMTQSPSSLSASVGDRVTITCKASQLVSSAVAWYQQKPGKAPKLLIYWASTLHTGVPSRFSGSGSGTDFTLTISSLQPEDFATYYCQQHYRTPFTFGQGTKLEIKRTVAAPQSVLTQPPSASGTPGQRVTISCSGSSSNIGGNTVNWYQQLPGTAPKLLIYSNNQRPSGVPDRFSGSKSGTSASLAISGLQSEDEADYYCAAWDDSLEGSYVFGGGTKLTVLGQPKAAPSVTLFPPSSEELQANKATLVCLISDFYPGAVTVAWKADSSPVKAGVETTTPSKQSNNKYAASSYLSLTPEQWKSHRSYSCQVTHEGSTVEKTVAPTECS
notes: DVD-Ig: outer AB437, inner MSL10-AM2.2
B2: DVD2651 (bispecific antibody, human IgG1, lambda)
heavy: EVQLVESGGGLVQPGGSLRLSCAASGFTFSNYGVEWVRQAPGKGLEWVSGIWADGSTHYADTVKSRFTISRDNSKNTLYLQMNSLRAEDTAVYYCAREWQHGPVAYWGQGTLVTVSSASTKGPSVFPLAPEVQLVESGGGLVQPGRSLRLSCAASGFTFDDYALHWVRQAPGKGLEWVSGIGWDEDMIDYADSVKGRFTISRDNAKNSLYLQMNSLRVEDTALYYCAGNNRGYGGLDVWGQGTTVTVSSASTKGPSVFPLAPSSKSTSGGTAALGCLVKDYFPEPVTVSWNSGALTSGVHTFPAVLQSSGLYSLSSVVTVPSSSLGTQTYICNVNHKPSNTKVDKKV[left out - human IgG1 Fc with changes]
light: B1 light with S139W, G144S, S164N, E210S, S212E
notes: DVD-Ig: outer AB437, inner MSL10-AM3.2
B3: DVD2631 (bispecific antibody, human IgG1, lambda)
heavy: EVQLVESGGGLVQPGGSLRLSCAASGFTFSNYGVTWVRQAPGKGLEWVSMIWADGSTHYASSVKGRFTISRDNSKNTLYLQMNSLRAEDTAVYYCAREWQHGPVAYWGQGTLVTVSSASTKGPSVFPLAPEVQLVESGGGLVQPGRSLRLSCAASGFTFDDYALHWVRQAPGKGLEWVSGIGWDEDMIDYADSVKGRFTISRDNAKNSLYLQMNSLRVEDTALYYCAGNNRGYGGLDVWGQGTTVTVSSASTKGPSVFPLAPSSKSTSGGTAALGCLVKDYFPEPVTVSWNSGALTSGVHTFPAVLQSSGLYSLSSVVTVPSSSLGTQTYICNVNHKPSNTKVDKKV[left out - human IgG1 Fc with changes]
light: B1 light with K24R, T53A, L54R, R93K, S139W, G144S, S164N, E210S, S212E
notes: DVD-Ig: outer AB436, inner MSL10-AM3.2
B4: DVD2647 (bispecific antibody, human IgG1, lambda)
heavy: EVQLVESGGGLVQPGGSLRLSCAASGFTFSNYGVEWVRQAPGKGLEWVSGIWADGSTHYADTVKSRFTISRDNSKNTLYLQMNSLRAEDTAVYYCAREWQHGPVAYWGQGTLVTVSSGGGGSGGGGSEVQLVESGGGLVQPGRSLRLSCAASGFTFDDYALHWVRQAPGKGLEWVSGIGWDEDMIDYADSVKGRFTISRDNAKNSLYLQMNSLRVEDTALYYCAGNNRGYGGLDVWGQGTTVTVSSASTKGPSVFPLAPSSKSTSGGTAALGCLVKDYFPEPVTVSWNSGALTSGVHTFPAVLQSSGLYSLSSVVTVPSSSLGTQTYICNVNHKPSNTKVDKKV[left out - human IgG1 Fc with changes]
light: DIQMTQSPSSLSASVGDRVTITCKASQLVSSAVAWYQQKPGKAPKLLIYWASTLHTGVPSRFSGSGSGTDFTLTISSLQPEDFATYYCQQHYRTPFTFGQGTKLEIKRGGSGGGGSGQSVLTQPPSASGTPGQRVTISCSGSWSNIGSNTVNWYQQLPGTAPKLLIYNNNQRPSGVPDRFSGSKSGTSASLAISGLQSEDEADYYCAAWDDSLSGEYVFGGGTKLTVLGQPKAAPSVTLFPPSSEELQANKATLVCLISDFYPGAVTVAWKADSSPVKAGVETTTPSKQSNNKYAASSYLSLTPEQWKSHRSYSCQVTHEGSTVEKTVAPTECS
notes: as for B2
B5: DVD2642 (bispecific antibody, human IgG1, lambda)
heavy: EVQLVESGGGLVQPGGSLRLSCAASGFTFSNYGVEWVRQAPGKGLEWVSGIWADGSTHYADTVKSRFTISRDNSKNTLYLQMNSLRAEDTAVYYCAREWQHGPVAYWGQGTLVTVSSGGGGSGGGGSEVQLVESGGGLVQPGRSLRLSCAASGFTFDDYALHWVRQAPGKGLEWVSGIGWEDDMIDYADSVKGRFTISRDNAKNSLYLQMNSLRVEDTALYYCAGNSRGYGGLDVWGQGTTVTVSSASTKGPSVFPLAPSSKSTSGGTAALGCLVKDYFPEPVTVSWNSGALTSGVHTFPAVLQSSGLYSLSSVVTVPSSSLGTQTYICNVNHKPSNTKVDKKV[left out - human IgG1 Fc with changes]
light: B4 light with W143S, S148G, N168S, S214E, E216S
notes: as for B1
B6: DVD2650 (bispecific antibody, human IgG1, kappa, lambda)
heavy: EVQLVESGGGLVQPGGSLRLSCAASGFTFSNYGVEWVRQAPGKGLEWVSGIWADGSTHYADTVKSRFTISRDNSKNTLYLQMNSLRAEDTAVYYCAREWQHGPVAYWGQGTLVTVSSASTKGPEVQLVESGGGLVQPGRSLRLSCAASGFTFDDYALHWVRQAPGKGLEWVSGIGWDEDMIDYADSVKGRFTISRDNAKNSLYLQMNSLRVEDTALYYCAGNNRGYGGLDVWGQGTTVTVSSASTKGPSVFPLAPSSKSTSGGTAALGCLVKDYFPEPVTVSWNSGALTSGVHTFPAVLQSSGLYSLSSVVTVPSSSLGTQTYICNVNHKPSNTKVDKKV[left out - human IgG1 Fc with changes]
light: DIQMTQSPSSLSASVGDRVTITCKASQLVSSAVAWYQQKPGKAPKLLIYWASTLHTGVPSRFSGSGSGTDFTLTISSLQPEDFATYYCQQHYRTPFTFGQGTKLEIKRTVAAPSVFIFPPQSVLTQPPSASGTPGQRVTISCSGSWSNIGSNTVNWYQQLPGTAPKLLIYNNNQRPSGVPDRFSGSKSGTSASLAISGLQSEDEADYYCAAWDDSLSGEYVFGGGTKLTVLGQPKAAPSVTLFPPSSEELQANKATLVCLISDFYPGAVTVAWKADSSPVKAGVETTTPSKQSNNKYAASSYLSLTPEQWKSHRSYSCQVTHEGSTVEKTVAPTECS
notes: as for B2
B7: DVD2628 (bispecific antibody, human IgG1, lambda)
heavy: EVQLVESGGGLVQPGGSLRLSCAASGFTFSNYGVTWVRQAPGKGLEWVSMIWADGSTHYASSVKGRFTISRDNSKNTLYLQMNSLRAEDTAVYYCAREWQHGPVAYWGQGTLVTVSSASTKGPEVQLVESGGGLVQPGRSLRLSCAASGFTFDDYALHWVRQAPGKGLEWVSGIGWDEDMIDYADSVKGRFTISRDNAKNSLYLQMNSLRVEDTALYYCAGNNRGYGGLDVWGQGTTVTVSSASTKGPSVFPLAPSSKSTSGGTAALGCLVKDYFPEPVTVSWNSGALTSGVHTFPAVLQSSGLYSLSSVVTVPSSSLGTQTYICNVNHKPSNTKVDKKV[left out - human IgG1 Fc with changes]
light: B1 light with K24R, T53A, L54R, R93K, S139W, G144S, S164N, E210S, S212E
notes: as for B3
B8: DVD2643 (bispecific antibody, human IgG1, lambda)
heavy: EVQLVESGGGLVQPGGSLRLSCAASGFTFSNYGVEWVRQAPGKGLEWVSGIWADGSTHYADTVKSRFTISRDNSKNTLYLQMNSLRAEDTAVYYCAREWQHGPVAYWGQGTLVTVSSASTKGPEVQLVESGGGLVQPGRSLRLSCAASGFTFDDYALHWVRQAPGKGLEWVSGIGWEDDMIDYADSVKGRFTISRDNAKNSLYLQMNSLRVEDTALYYCAGNSRGYGGLDVWGQGTTVTVSSASTKGPSVFPLAPSSKSTSGGTAALGCLVKDYFPEPVTVSWNSGALTSGVHTFPAVLQSSGLYSLSSVVTVPSSSLGTQTYICNVNHKPSNTKVDKKV[left out - human IgG1 Fc with changes]
light: B1 light
notes: as for B1
B9: DVD2648 (bispecific antibody, human IgG1, lambda)
heavy: EVQLVESGGGLVQPGGSLRLSCAASGFTFSNYGVEWVRQAPGKGLEWVSGIWADGSTHYADTVKSRFTISRDNSKNTLYLQMNSLRAEDTAVYYCAREWQHGPVAYWGQGTLVTVSSASTKGPEVQLVESGGGLVQPGRSLRLSCAASGFTFDDYALHWVRQAPGKGLEWVSGIGWDEDMIDYADSVKGRFTISRDNAKNSLYLQMNSLRVEDTALYYCAGNNRGYGGLDVWGQGTTVTVSSASTKGPSVFPLAPSSKSTSGGTAALGCLVKDYFPEPVTVSWNSGALTSGVHTFPAVLQSSGLYSLSSVVTVPSSSLGTQTYICNVNHKPSNTKVDKKV[left out - human IgG1 Fc with changes]
light: B1 light with S139W, G144S, S164N, E210S, S212E
notes: as for B2
B10: DVD2645 (bispecific antibody, human IgG1, kappa, lambda)
heavy: EVQLVESGGGLVQPGGSLRLSCAASGFTFSNYGVEWVRQAPGKGLEWVSGIWADGSTHYADTVKSRFTISRDNSKNTLYLQMNSLRAEDTAVYYCAREWQHGPVAYWGQGTLVTVSSASTKGPEVQLVESGGGLVQPGRSLRLSCAASGFTFDDYALHWVRQAPGKGLEWVSGIGWEDDMIDYADSVKGRFTISRDNAKNSLYLQMNSLRVEDTALYYCAGNSRGYGGLDVWGQGTTVTVSSASTKGPSVFPLAPSSKSTSGGTAALGCLVKDYFPEPVTVSWNSGALTSGVHTFPAVLQSSGLYSLSSVVTVPSSSLGTQTYICNVNHKPSNTKVDKKV[left out - human IgG1 Fc with changes]
light: B6 light with W146S, S151G, N171S, S217E, E219S
notes: as for B1

target: T1, recombinant human sclerostin; test: SPR
Description: (§1) The binding of antibodies or anti-sclerostin-TNF DVD to purified recombinant human, cynomolgus monkey (cyno), rat and mouse sclerostin and TNFα was determined by surface plasmon resonance-based measurements with a Biacore T100 or T200 instruments (GE Healthcare Life Sciences, Piscataway, N.J., USA) using running HBS-EP+ (10 mM HEPES [pH 7.4], 150 mM NaCl, 3 mM EDTA, and 0.005% surfactant P20) containing additional 150 mM NaCl, and/or 10 mg/ml carboxymethyl dextran, 0.1 mg/ml BSA at 25° C. All chemicals were obtained from GE Healthcare Life Sciences, Piscataway, N.J., USA or otherwise from a different source as described in the text. Approximately 10,000 RU (or 3000 RU when CM3 chip was used) of goat anti-mouse or anti-human IgG (Fcγ) fragment specific polyclonal antibody (Pierce Biotechnology Inc, Rockford, Ill.) diluted in 10 mM sodium acetate (pH 4.5) was directly immobilized across a CM5 (or CM3) research grade biosensor chip using a standard amine coupling kit according to manufacturer's instructions and procedures at 15 μg/ml. Unreacted moieties on the biosensor surface were blocked with ethanolamine. Modified carboxymethyl dextran surface in flowcells 2, 3 and 4 were used as a reaction surface. Modified carboxymethyl dextran in flow cell 1 was used as the reference surface. Biaevaluation T100 software version 2.0.2, GE Healthcare Life Sciences was used to simultaneously fit association and dissociation phases of all injections (using 1:1 fit analysis with local Rmax). Purified antibodies were diluted in running buffer for capture across goat anti-mouse or anti-human IgG specific reaction surfaces. Antibodies to be captured as a ligand (1 μg/ml) were injected over reaction matrices at a flow rate of 10 μl/minute. The association and dissociation rate constants, kon (unit M-1 s-1) and koff (unit s-1) were determined under a continuous flow rate of 50 μl/minute. […] At the end of each cycle the surfaces were regenerated with 10 s injection of 50 mM NaOH or/and by 10 s injection of 10 mM Glycine pH1.5 at a flow rate of 100 μl/min.

Kd [nM]	koff [s⁻¹]	kon [M⁻¹ s⁻¹]	Binder
1.1	0.00012	110000	B1
2.7	0.00012	43000	B2
1.8	0.00014	79000	B3
4.6	0.00021	46000	B4
1	6e-05	60000	B5
2.6	0.00013	51000	B6
1.5	9.3e-05	64000	B7
0.83	6.3e-05	76000	B8
4	0.00033	83000	B9
0.75	6.3e-05	85000	B10

target: T2, recombinant cynomolgus monkey sclerostin (cynomolgus monkey); test: SPR
T2 construct: also called cyno sclerostin; Cyno sclerostin
Description: as §1

Kd [nM]	koff [s⁻¹]	kon [M⁻¹ s⁻¹]	Binder
0.29	6.6e-05	230000	B1
2.6	0.0002	78000	B2
2.3	0.00024	110000	B3
3.1	0.00023	73000	B4
< 0.0067	< 1e-06	150000	B5
1.4	0.00015	110000	B6
3.1	0.00028	90000	B7
< 0.0059	< 1e-06	170000	B8
1.3	0.00012	93000	B9
0.21	2.8e-05	130000	B10
